# In PubChem BioAssay AID1963576 (National Center for Advancing Translational Sciences (NCATS), 2024):
# In all, about 46,000 compounds went through this assay and about 60 (0.1%) were called active. Roughly 3% stayed inconclusive and do not appear here. Calls follow the shape of the dose curve; as a rule, active = well fitted inhibition curve with a large enough effect; inconclusive = small, poorly fitted or top-dose-only effect; inactive = no such curve, though single readings can be large or run the other way. Some of the results follow.
# Experiment: Primary qHTS assay for Inhibitors of ovarian cancer metastasis using an organotypic tumor microenvironment (TME) model. Also: nearly all actives have a fitted effect of over 65% in size.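 As to activity change, negative = inhibition: plate controls were DMSO wells for no effect and tomatine positive control wells for full effect.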
# Details: SKOV3ip1-GFP adhesion/invasion on 3D omental model, fluorescence; series mostly up to 45.8 µM; activity change, negative = inhibition: at the top concentration
# In short: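 Primary human omental fibroblast/mesothelial 3D culture pre-formed 48 h. SKOV3ip1-GFP cells added with compounds (0.36-46 umol/L), incubated 2 h RT/16 h 37 C, fixed; GFP cells quantified at 488/509 nm.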
SMILES,"activity change, negative = inhibition",outcome
CCNC(=O)CC1C(=O)N(c2ccc(C)cc2)C(=O)N1Cc1ccc(C)cc1 (centres undefined),inactive: -13.8%,–
COc1ccc(CCn2c3c(c(=O)[nH]c2=O)C(NC(=O)c2ccccc2)(C(F)(F)F)C(=O)N3)cc1OC (centres undefined),inactive: 4.04%,–
COc1ccc(NC(=O)Cn2nnc(C(=O)NCc3ccccc3Cl)c2N)cc1Cl,–,inactive
NC(=O)c1cc(S(=O)(=O)N2CCCCC2)cs1,inactive: -8.43%,–
CCOc1ccc(N(C(=O)c2ccc(C)cc2)S(=O)(=O)c2ccc3c(c2)n(C)c(=O)n3C)cc1,inactive: 1.75%,–
Cc1ccc2nc(-c3ccc(C)c(NC(=O)CSc4ccc(Cl)cc4)c3)oc2c1,inactive: 0.951%,–
CCC(=C(c1ccccc1)c1ccc(OCCN(C)C)cc1)c1ccccc1,inactive: 2.94%,–
CCn1cc(S(=O)(=O)c2cc(C)cc(C)c2)c(=O)c2cc(F)c(N3CCC(C)CC3)cc21,inactive: -8.75%,–
O=C(NCc1cccc(Br)c1)c1cccn1-c1nnc(N2CCCCC2)s1,–,inactive
COc1ccc(OC)c(NC(=O)c2ccc3c(c2)c(C)c(C)n3Cc2ccc(F)cc2)c1,–,inactive
CCN(CC)C(=O)Cn1c(=O)n(CCCCCC(=O)NCc2ccccc2Cl)c(=O)c2sccc21,inactive: -2.76%,–
Cc1ccc(C)n1-c1nnc(N2CCCC(C(=O)NCc3ccc(F)cc3)C2)s1 (centres undefined),–,inactive
O=C(NCc1ccc(Cl)cc1)c1cc2ccccc2o1,inactive: -11.9%,–
Cc1ccc(Cl)cc1N1CCN(C(=O)Cn2cnc3nc4c(cc3c2=O)CCCC4)CC1,inactive: 8.08%,–
Cc1ccc2cccc(NC(=O)c3ccc(-c4cc(Cl)ccc4Cl)o3)c2n1,–,inactive
Cc1ccc(C(=O)Nc2nc3n(n2)C(c2ccccc2)C=C(c2ccccc2)N3)cc1 (centres undefined),inactive: 20.4%,–
Cc1cc(C)c(/C=C/c2onc(C)c2S(=O)(=O)N2CCC(C(=O)N3CCN(c4ccc(Cl)cc4)CC3)CC2)c(C)c1,–,inactive
Cc1ccc(NC(=O)Cn2c(C)cc(C)c(C#N)c2=O)cc1F,–,inactive
CN(CC(=O)Nc1ccc(F)cc1F)S(=O)(=O)c1ccc(C(=O)N2CCOCC2)s1,–,inactive
Cc1ccc(NC(=O)CCNS(=O)(=O)c2cccc3nsnc23)cc1,inactive: -0.766%,–
NC(=O)OCC(COC(N)=O)c1ccccc1,inactive: 8.37%,–
COc1ccc(-c2nc3ccccc3s2)cc1NC(=O)c1cc2ccccc2o1,–,inactive
CC1CCc2onc(C(=O)N3CCN(c4cccc(C(F)(F)F)c4)CC3)c2C1 (centres undefined),inactive: -3.02%,–
CCOc1ccc(-c2nc(SCC(=O)Nc3ccc4c(c3)OCCO4)c(-c3ccc(F)cc3)[nH]2)cc1,inactive: 2.48%,–
O=C(Cc1csc2ccccc12)NCc1ccccc1F,–,inactive

SMILES,"activity change, negative = inhibition",outcome
CCOc1ccc(-c2nonc2NC(=O)c2ccc(C)cc2)cc1OCC,inactive: -2.45%,–
CCC(=O)N1CCc2cc(Br)cc(S(=O)(=O)CCC(=O)NCCc3ccccc3Cl)c21,inactive: 2.73%,–
CN1CCN(C(c2cccc(Br)c2)c2sc3nc(-c4ccco4)nn3c2O)CC1 (centres undefined),inactive: 2.13%,–
O=C(Cn1nc(Cc2cccnc2)c2ccccc2c1=O)Nc1cccc(C(F)(F)F)c1,–,inactive
COc1cccc(OC)c1C(=O)Nc1cccc(-c2nc3cc(C)cc(C)c3o2)c1,inactive: -15.2%,–
Clc1ccc2nc(-c3ccc(Br)o3)c(Nc3ccc4c(c3)OCCO4)n2c1,–,inactive
O=C(CC12CC3CC(CC(C3)C1)C2)Nc1cccc2nc(NCCNCCO)ccc12,inactive: 16.5%,–
COc1ccc(NC(=O)c2noc3c2CSc2ccccc2-3)cc1Cl,inactive: -22.7%,–
CCc1cccc(-n2nnc(-c3nc(-c4cccs4)no3)c2N)c1,inactive: -2.46%,–
CC(=O)N1CCCc2cc(S(=O)(=O)N3CCN(c4ccc(F)cc4)CC3)ccc21,inactive: -5.17%,–
CCC(=O)OCCCNc1nc(-c2ccc(Cl)cc2)nc2ccccc12,–,inactive
CN[C@H]1CCc2cc(OC)c(OC)c(OC)c2-c2ccc(OC)c(=O)cc21,inactive: 0.91%,–
COc1ccc(S(=O)(=O)N(C)Cc2nc(-c3cccc(C)c3)no2)cc1,inactive: 1.01%,–
CCc1ccc(NC(=O)N(Cc2ccc(C)cc2)Cc2cccn2-c2nnc(N3CCCC3=O)s2)cc1,inactive: -12.4%,–
CCc1ccc(NC(=O)CN2C(=O)C(c3ccccc3)=NC23CCCCCC3)cc1,–,inactive
COc1cccc(CNC(=O)C(NS(=O)(=O)c2ccc3nc(C)sc3c2)C(C)C)c1 (centres undefined),inactive: 9.23%,–
Cc1ccc(NC(=O)C2CCCN(c3nnc(-n4c(C)ccc4C)s3)C2)cc1Cl (centres undefined),inactive: -6.9%,–
COc1ccc(-c2cc(C(F)(F)F)nc(SCC(=O)NCCc3ccc(OC)c(OC)c3)n2)cc1,–,inactive
Cc1ccc(NC(=O)N2CCC(CN3CCC(C)CC3)CC2)cc1F,inactive: 1.19%,–
CCCc1cc(=O)n2[nH]c(-c3ccc(C)cc3)nc2n1,inactive: -4.83%,–
CCOC(=O)c1ccc(NC(=O)c2cc(=O)c3cc(CC)ccc3o2)cc1,inactive: -3.88%,–
CCCCc1ccc(NC(=O)COc2cccc3c(=O)n(C)ccc23)cc1,inactive: -3.3%,–
CCOC(=O)c1c(C)c(-c2ccccc2)n(CC(=O)NCCc2ccc(C)cc2)c1C,–,inactive
Cc1ccc2nc(CSc3nnc(NC(=O)COc4ccccc4)s3)cc(=O)n2c1,–,inactive
